Assay results published in the supplement of paper PMC10338343.
± gives the standard deviation. The list shows a part of the results, in another mix than the full data.

Tested on: MIWI (PIWIL1) piRISC loaded with L1MC piRNA (30 nt)
Assay: pre-steady-state target cleavage rate (min^-1); MIWI and MILI are mouse PIWI proteins and EfPiwi is from a freshwater sponge; tags in brackets are library labels; higher = faster piRNA-guided slicing of the target
Conditions: guide: L1MC piRNA 5'p-UAACUAAAUACUAUGCAAGCUGUAGGUCCU
Summary of the method: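 Reactions were run for 0–8 or 0–960 min at 33 °C in HEPES–potassium acetate buffer, combining 1 nM active affinity-purified piRISC with one synthetic guide, […] transcribed, DNA-blocked target RNA library and, in some cases, 500 nM GTSF1 partner protein. Sequencing of uncleaved targets followed, with normalisation to depth and to weakly complementary targets. Three trials were pooled, k3 was capped at 0.0001 min^-1, and the pre-steady-state cleavage rate was taken from a burst-and-steady-state fit.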

[1] = auxiliary factor: 500 nM mouse GTSF1
[2] = auxiliary factor: none (no GTSF1)
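Note: 1 nM active piRISC with 0.1 nM target library at 33 °C single turnover.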

AGGACCUACAGCUUGCAUAGUUUAUAGUUA
pre-steady-state target cleavage rate [1]: 0.16 ± 0.022 | pre-steady-state target cleavage rate [2]: 0.0173 ± 0.0056

UCCUGCUACAGCCUUGCAUAGUAUUUAGUUA
pre-steady-state target cleavage rate [1]: 0.919 ± 0.046 | pre-steady-state target cleavage rate [2]: 0.0245 ± 0.0046

UCCUGGAUGAGCUAGCUUAGUAUUUAGUUA
pre-steady-state target cleavage rate [1]: 0.125 ± 0.0099 | pre-steady-state target cleavage rate [2]: 0.00494 ± 0.0023

UCCACCUACAGCUUGCAUAGUAUGUUAGUUA
pre-steady-state target cleavage rate [1]: 0.315 ± 0.045 | pre-steady-state target cleavage rate [2]: 0.0117 ± 0.0026

UCCACCUACAGGUUGCAUAGUAUUUACUUA
pre-steady-state target cleavage rate [1]: 0.384 ± 0.046 | pre-steady-state target cleavage rate [2]: 0.0205 ± 0.0031
